According to PubChem BioAssay (NCI):
Where “and” joins values, the source holds several entries; their conditions need not be identical. Equal values may be shown once.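 Where inhibition never reached the appropriate level, the endpoint shown equals the highest concentration tested. Otherwise, values were interpolated linearly from a five-concentration, 48-hour dose response in 96-well plates. Here, GI50 denotes the concentration required for 50% inhibition of growth. TGI is the concentration that stops growth completely.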

System: NCI-H322M lung
Assay: NCI-60 cell line screen, 48 h

SMILES	TGI	GI50
COC(=O)C1=C(C)NC(C)=C(C(=O)OC)C1c1cccc(N=O)c1	> 100 µM	
O=c1oc2ccccc2c(O)c1C=NC(=S)c1ccncc1	> 100 µM	
CC[N+]1(C)CCC(O)(c2ccc(C)cc2)C(C(=O)c2ccc(C)cc2)C1 (stereo unspecified)	> 100 µM	
CNC(=O)Nc1ccc(-c2nc(N3CCOCC3)nc3c2cnn3C2CCOCC2)cc1	8.37 µM	0.252 µM
CC(C)n1c(/C=C/[C@@H](O)C[C@@H](O)CC(=O)O)c(-c2ccc(F)cc2)c2ccccc21	> 100 µM	1.11 µM and 3.44 µM
Cc1cc(O)c2c(c1)C(O)(c1ccc3c(c1O)C(=O)c1c(O)cc(C)cc1C3(O)C1OC(CO)C(O)C(O)C1O)c1cccc(O)c1C2=O (stereo unspecified)	31.4 µM	
COc1cc2c3cc1Oc1c(OC)c(OC)cc4c1C(Cc1ccc(O)c(c1)Oc1ccc(cc1)CC3N(C)CC2)CN(C)C4 (stereo unspecified)	37.5 µM	
C=C(C)[C@H]1CC(=O)/C(C)=C\CC/C(C)=C/CC[C@@]2(C)O[C@@H]2C1	> 100 µM	
O=C(CCc1nc(=S)[nH][nH]1)NC12CC3CC(CC(C3)C1)C2	> 100 µM	
CC1(C)C(=O)C(O)=CC2C1=CCC1C2(C)C(=O)CC2(C)C(C(C)(O)C(=O)CC(O)C(C)(C)O)C(O)CC12C (stereo unspecified)	> 97.4 µM	
Clc1ccc(OCc2nnc(COc3ccc(OCc4nnc(COc5ccc(Cl)cc5Cl)o4)c(Cl)c3)o2)c(Cl)c1	> 100 µM	
CC[C@H](C)[C@H](NC(=O)c1cnccn1)C(=O)N(C)[C@H](C[C@@H](OC(C)=O)c1nc(C(=O)N[C@@H](Cc2ccccc2)C[C@H](C)C(=O)OC)cs1)C(C)C	> 33.3 µM	1.93 µM
O=[N+]([O-])c1ccc(N=Nc2c(O)[nH]c3ccc([N+](=O)[O-])cc23)cc1	63.3 µM	
COc1cc(-c2csc(NC(=O)c3cc(C(F)(F)F)cc(C(F)(F)F)c3)n2)cc(OC)c1OC	> 100 µM	3.33 µM
COC(=O)C1=C(C(=O)OC)SC(=C2SC3=C(SC(=C4SCCS4)S3)S2)S1	> 100 µM	
COc1cc2cc(Oc3ccc(NC(=O)c4cccc(C(F)(F)F)c4)cc3)c(C)nc2cc1OC	> 100 µM	> 100 µM
Cc1nc(SCC(N)=O)c2sc(=S)n(-c3ccccc3)c2n1	> 10 µM	
CC(O)CNC1=CC(=O)C(=O)c2ccccc21 (stereo unspecified)	31.2 µM	
C/C(=N/N(C=O)C[n+]1ccccc1)C(CN(CC(C)C)CC(C)C)C(=O)Nc1ccc(C)cc1C (stereo unspecified)	> 100 µM	
Cc1ccc2c(c1C)CC1(Cc3c(C)ccc(C)c3C1=O)C2=O (stereo unspecified)	> 100 µM	
CCc1ccccc1NC(=O)C(=O)C(C(=O)c1ccc(OC)cc1)c1ccc(OC)cc1 (stereo unspecified)	> 100 µM	
C=C(C)C1CC2C(C)=C(OC(C)=O)C1n1c(=O)c3cc4ccccc4cc3c(=O)n12 (stereo unspecified)	> 100 µM	
C#C[C@]1(O)CC[C@H]2[C@@H]3CC=C4c5nc(Nc6ccccn6)sc5CC[C@]4(C)[C@H]3CC[C@@]21C	10.9 µM	2.35 µM

SMILES	TGI	GI50
COc1ccc(C(=O)N2c3ccccc3Sc3ccccc32)c(F)c1	> 100 µM	8.13 µM
CN1C2CC(C#N)C1C=CC2=O (stereo unspecified)	49.6 µM and > 100 µM	21.2 µM and > 100 µM
O=C1/C(=C/c2ccc(Cl)cc2)CCCc2ccc(F)cc21	64.1 µM	19.3 µM
Cc1cc2c(C(C)C)c(O)c(O)c(C=Nc3cc(C(F)(F)F)ccc3Cl)c2c(O)c1-c1c(C)cc2c(C(C)C)c(O)c(O)c(C=Nc3cc(C(F)(F)F)ccc3Cl)c2c1O	> 100 µM	
CCN(c1ccc(CO)c(Cl)c1)C(C)c1ccc(F)cc1 (stereo unspecified)	27.6 µM	14.2 µM
O=CN1CCN(C(=O)c2ccco2)C1=S	47.7 µM	
O=C(O)C1=NN(c2ccc(S(=O)(=O)O)cc2)C2(C1)C(Cl)C(=O)N2c1nc2ccccc2s1 (stereo unspecified)	50.7 µM	
N#C/C(=C\c1cccc(Br)c1)c1nc2ccccc2c(=O)[nH]1	> 100 µM	
Oc1c(OCc2nnc(CCCCCCCCc3nnc(COc4ccc5ccccc5c4O)o3)o2)ccc2ccccc12	> 100 µM	
COc1ccc(C2C(Cl)C(=O)N2n2cnc3ccccc3c2=O)cc1OC (stereo unspecified)	> 100 µM	
O=C(Sc1c(-c2ccccc2)c(=O)n(-c2ccccc2)c(=S)n1-c1ccccc1)c1ccco1	> 100 µM	
O=C1/C(=C/c2ccncc2)C(n2cccc2)c2c(Br)sc(Br)c21 (stereo unspecified)	6.79 µM	
Nc1c(C(=O)Nc2ccc([As](=O)(O)O)cc2)cnc2nnnn12	> 100 µM	
Cc1cc(C)c2c(c1)CN1CN2Cc2cc(C)cc(C)c21	> 100 µM	
COc1cc2[nH]c(=O)c3cc(-c4ccccc4)cc4c(Cl)nc(c1OC)c2c43	> 91.5 µM	
CCOC(=O)c1c(NC(=O)c2ccc(C(C)C)cc2)sc2c(CN(C)C)c(O)ccc12	4.51 µM	2.05 µM
CC(=O)C1(O)CCC2(O)C3(O)CC=C4CC(O)CCC4(C)C3CC(OC(=O)c3ccc(O)cc3)C12C (stereo unspecified)	> 100 µM	
CSc1nc2c(c(O)c(C)c(=O)n2C2OC(COC(C)=O)C(OC(C)=O)C(OC(C)=O)C2OC(C)=O)c(=O)n1C (stereo unspecified)	> 100 µM	
CN(C)CCCNc1cc(O)c2c(c1O)C(=O)c1ccccc1C2=O	24.1 µM	
Clc1ccc(COC(Cn2ccnc2)c2ccc(Cl)cc2Cl)cc1 (stereo unspecified)	20.2 µM and 25.5 µM and 25.7 µM	6.71 µM
CC(C)N(C(C)C)[PH+]1O[PH+](N(C(C)C)C(C)C)O[PH+](N(C(C)C)C(C)C)O[PH+](N(C(C)C)C(C)C)O[PH+](N(C(C)C)C(C)C)O1.[C-]#[O+].[C-]#[O+].[C-]#[O+].[C-]#[O+].[C-]#[O+].[C-]#[O+].[C-]#[O+].[Cr].[Cr] (stereo unspecified)	> 100 µM	> 100 µM
COc1cccc(N2C(=O)CS(=O)(=O)C2c2cccc(Oc3ccccc3)c2)c1 (stereo unspecified)	> 100 µM	
O=C(c1ccccc1)c1c(CC(O)c2cccnc2)n(C(=O)c2ccccc2)c2ccccc12 (stereo unspecified)	> 100 µM	

SMILES	TGI	GI50
COc1ccc(C(C2=C(C)C(=O)c3ccccc3C2=O)c2ccc(C(C)C)cc(=O)c2O)cc1 (stereo unspecified)	> 100 µM	
O=C(/C=C\Nc1ccccc1O)C(F)(F)F	> 100 µM	
Clc1cc(C(c2cc(Cl)sc2Cl)c2cc(Cl)sc2Cl)c(Cl)s1	> 100 µM	
CCOC(=O)Cn1nnc2cc(Nc3c(C)[n+]([O-])c4cc(F)c(OCC)cc4[n+]3[O-])ccc21	> 100 µM	
CC1(C)OC[C@@H](C[C@H](O)COCc2ccccc2)O1	> 100 µM	
N#Cc1nc(C2CCC(=O)O2)oc1N (stereo unspecified)	> 100 µM	
C=C1C[C@@H]2CC[C@@]34C[C@H]5O[C@H]6[C@@H](O3)[C@H]3O[C@H](CC[C@@H]3O[C@H]6[C@H]5O4)CC(=O)C[C@@H]3[C@@H](OC)[C@@H](C[C@H](O)CN)O[C@H]3C[C@H]3O[C@@H](CC[C@@H]1O2)C[C@@H](C)C3=C	> 1 µM	0.00294 µM
CC1(C)O[C@H]2OC3CCC(=O)CC3(O)[C@H]2O1 (stereo partly specified)	> 100 µM	
COc1ccc(C2Oc3c(OC)cc(CCCO)cc3C2CO)cc1OC (stereo unspecified)	> 100 µM	
Nc1nc2c(ncn2Cc2ccccc2CCO)c(=O)[nH]1	> 100 µM	
O=C1NC(=S)NC(=O)C1C(c1ccc(Cl)cc1)C1C(=O)NC(=S)NC1=O	> 100 µM	
NCCN(CCN(C(=O)Nc1ccccc1)c1ccccc1)C(=O)Nc1ccccc1	76.8 µM	
Cn1cc(C2=C(c3cn(C)c4ccc(N)cc34)C(=O)NC2=O)c2ccccc21	> 25 µM	16.7 µM
COC(=O)c1nc(NN)[nH]c(=O)c1CCCCCc1c(C(=O)OC)[nH]c(NN)cc1=O	> 100 µM	
CC1CCc2sc3nc4n(c(=O)c3c2C1)CC(C)S4 (stereo unspecified)	97.3 µM	
C[n+]1cc2c3c(ccc2c2ccc4cc5c(cc4c21)OCO5)OCO3	2.47 µM	1.22 µM
COC1/C=C/OC2(C)Oc3c(C)c(O)c4c(c3C2=O)C(=O)C=C(NC(=O)/C(C)=C\C=C\C(C)C(OC=O)C(C)C(O)C(C)C(OC(C)=O)C1C)C4=O (stereo unspecified)	45.4 µM	
CCOc1ccc(N=Nc2ccc3cc(/C(C)=N/NC(=O)/C(C#N)=C\c4ccc(N(CCC#N)CCC#N)cc4)c(=O)oc3c2)cc1	> 10 µM	
c1c(N2CCOCC2)ssc1=[N+]1CCOCC1	> 100 µM	
C=C1CC(COc2ccc3c(C)c(C)c(=O)oc3c2C)(c2ccccc2)OC1=O (stereo unspecified)	23.9 µM	
N#Cc1ccc(-c2nc(C#N)c(N)o2)cc1	> 10 µM	
COc1ccc(Cl)cc1Nc1nc(C(F)(F)F)ccc1C(=O)NN	> 100 µM	2.3 µM
Nc1c(S(N)(=O)=O)cc(S(N)(=O)=O)cc1S(N)(=O)=O	> 100 µM	

SMILES	TGI	GI50
O=C1CC(c2ccccc2Cl)C2(C(=O)NC(=O)NC2=O)C(c2ccccc2Cl)C1 (stereo unspecified)	> 100 µM	
O=P(OCc1ccccc1)(OCc1ccccc1)C(O)/C=C/c1ccccc1 (stereo unspecified)	67.3 µM	
C[N+]1(CCN=C=NC2CCCCC2)CCOCC1	> 100 µM	
CC(=O)OCC(=O)O[C@@H]1[C@H]2[C@@H](OC(=O)c3ccccc3)[C@@H](C)C[C@]2(O)[C@H](OC(C)=O)[C@@]2(C)C[C@]1(OC(C)=O)C[C@H]1C(=O)C(C)(C)[C@@H](OC(C)=O)[C@@H]12	> 25 µM	
C#CCOCC12C=CC(O1)C1COC(=O)C12 (stereo unspecified)	> 100 µM	
NCCCCNCCCNC(=O)CNC(=O)CC(O)C(N)CCCC(NC(=O)C(CN)NC(=O)C(O)CNC(=O)CC(N)c1ccc(O)cc1)C(=O)O (stereo unspecified)	> 10 µM	
COc1ccc([C@H]2CC(=O)N3CCCC3N2)cc1 (stereo partly specified)	> 100 µM	
Cc1cc(Cl)ccc1NC(=O)C(=O)Cc1nc2ccc(C(=O)c3ccccc3)cc2[nH]c1=O	> 100 µM	
COc1cc(OC)cc(Oc2nc3cc(F)c(F)cc3nc2-c2ccccc2)c1	> 100 µM	
O=C(OC12CC3CC(CC(C3)C1)C2)c1ccc(NCc2cc(O)ccc2O)cc1	20.7 µM	
CC(C)(C)c1cc(/C=C2/NC(=O)NC2=O)cc(C(C)(C)C)c1O	29.8 µM	
COCC#C[C@@]1(O)CCCCC1CC(OC)OC (stereo partly specified)	> 100 µM	
Cn1c2c(c3ccccc31)CCN1C(=O)C34CCCC3CC21S4 (stereo unspecified)	> 100 µM	
CON(C)C(=O)C(C)NC(=O)OCc1ccccc1 (stereo unspecified)	> 100 µM	
Cc1cnc2[nH]c(-c3cccc(F)c3)cc(=O)c2c1	> 100 µM	
COc1ccc2c(c1)-c1c(c3cc(OC)ccc3n1CCN(C)C)CC2	26.1 µM	
COc1ccc(C2=C(Cl)C(=O)O/C2=C\c2ccc(OC)c(Br)c2)cc1Cl	> 100 µM	
CC1(C)N=C(N)N=C(N)N1c1cccc(OCc2cccc(N)c2)c1	> 100 µM	
COc1ccc(OC/C(N=Cc2ccncc2)=N/NC(=O)c2ccncc2)cc1	> 100 µM	
COC(=O)C1=C(OC(=O)c2ccc(Cl)cc2)C(C(=O)OC)[C@@]2(O)[C@@H](C(=O)OC)C(c3ccccc3C(F)(F)F)C[C@@H]1[C@@H]2C(=O)OC (stereo partly specified)	61.6 µM	25.1 µM
Cc1c(C)c2cc3c(=O)ccoc3c(C)c2oc1=O	> 100 µM	
CSc1ccc(/C=C2\CNC/C(=C\c3ccc(SC)cc3)C2=O)cc1	> 371 µM and 150 µg/mL	150 µg/mL
COC(=O)c1ccc2c(c1)C(NC(C)=O)CCc1cc(OC)c(OC)c(OC)c1-2 (stereo unspecified)	22.7 µM	
